From the supplement of paper PMC10126150
Sequences with one replicate were seen in a single cluster, so their values are uncertain.

The sequences below were run on ATP (assay: switch fluorescence ratio, 500 uM ATP over buffer (Cy3 cluster intensity, sum of 5 cycles each) (fold (ratio)); higher = stronger signal-on switching upon ATP binding; sequences stand for … in TCGTCGGCAGCGTCAGATGTGTATAAGAGACAGTTTTTTTTTTTTTTTTTTTTTTTTT…TC). Settings: aptamer strand: ATP DNA aptamer (quencher-CACCTGGGGGAGTATTGCGGAGGAAGG + anchor), 100 nM annealed; ATP concentration: 500 uM; one replicate.
Outline: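 Clusters carrying Cy3-labelled switching strands on a modified Illumina MiSeq flow-cell were annealed to 100 nM quencher-labelled ATP aptamer and imaged in selection buffer. They were imaged again after 15 min with 500 uM ATP at 22 °C, over five buffer/ATP cycles with NaOH stripping and re-annealing in between. For each cluster, the fluorescence ratio is the summed Cy3 intensity of the target cycles divided by that of the buffer cycles, averaged per switch-domain sequence. Clusters outside 100-1000 RFU were left out.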
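Note: ATP exposure 15 min at 22 °C before imaging.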

| Sequence | switch fluorescence ratio |
| --- | --- |
| GATGGCAACC | 1.14 |
| GATGGCGACT | 0.989 |
| GATGGCTGAC | 1.11 |
| GATGGCTGGT | 0.949 |
| GATGGCTTGT | 0.97 |
| GATGGGCAAA | 0.973 |
| GATGGGCGCG | 0.989 |
| GATGGGTAGC | 1.02 |
| GATGGGTAGG | 0.986 |
| GATGGGTCAC | 0.979 |
| GATGGGTGTT | 1 |
| GATGGTATAC | 1.4 |
| GATGGTCGGC | 0.983 |
| GATGGTGTCC | 1.06 |
| GATGGTTATA | 1.04 |
| GATGTACACT | 1.03 |
| GATGTATTGT | 0.989 |
| GATGTCACG | 1.02 |
| GATGTCCAG | 0.991 |
| GATGTCGAAA | 0.99 |
| GATGTGACGA | 1.01 |
| GATGTGCAAT | 1.36 |
| GATGTGCATA | 1.03 |
| GATGTGTTCG | 1 |
| GATGTTACT | 0.983 |
| GATGTTGGG | 0.947 |

| Sequence | switch fluorescence ratio |
| --- | --- |
| GATTACTGCC | 1.18 |
| GATTAGCCTA | 0.963 |
| GATTATGAAG | 0.969 |
| GATTATTCCA | 0.974 |
| GATTCCTGAC | 1.65 |
| GATTCGAGGG | 0.975 |
| GATTCTACCT | 1.24 |
| GATTCTGG | 0.964 |
| GATTGCCATC | 1.02 |
| GATTGCGTC | 1.02 |
| GATTGCGTTG | 1.01 |
| GATTGCTGGA | 0.992 |
| GATTGCTTGC | 1.04 |
| GATTGGGCAC | 1.01 |
| GATTGGTAGC | 0.999 |
| GATTGGTCGG | 1 |
| GATTGGTGTC | 0.892 |
| GATTGTTTAC | 1.13 |
| GATTTACTGT | 1.06 |
| GATTTCCGTA | 0.955 |
| GATTTGGTTT | 0.977 |
| GATTTTCCTG | 1.01 |
| GATTTTCTAA | 0.995 |
| GATTTTGCC | 1.05 |
| GCAAAAGTGT | 0.939 |
| GCAAAGAGGC | 1.02 |

| Sequence | switch fluorescence ratio |
| --- | --- |
| GCAAAGGAGA | 1.02 |
| GCAAAGGTTG | 0.997 |
| GCAAATGGCC | 1.02 |
| GCAACAGTTC | 0.979 |
| GCAACCCGTA | 0.994 |
| GCAACCTC | 1.18 |
| GCAACGAATG | 1.03 |
| GCAACGGGCA | 1.03 |
| GCAACTATAC | 2.19 |
| GCAACTATGA | 1.07 |
| GCAACTCTCA | 1.21 |
| GCAACTGGAC | 1.2 |
| GCAAGAATCG | 1.2 |
| GCAAGACAGT | 1.23 |
| GCAAGAGAGA | 0.99 |
| GCAAGAGCAG | 1.02 |
| GCAAGAGGAA | 1.03 |
| GCAAGATGCA | 1.02 |
| GCAAGCGAAT | 1.06 |
| GCAAGGACG | 1.01 |
| GCAAGGCCGA | 1.04 |
| GCAAGGCGG | 1.04 |
| GCAAGGTGGG | 0.979 |
| GCAAGGTTAA | 0.973 |
| GCAAGTGCGT | 1.02 |
| GCAATAATAA | 3.18 |

| Sequence | switch fluorescence ratio |
| --- | --- |
| GCAATTCAAG | 1.08 |
| GCAATTTGCC | 0.996 |
| GCAATTTTCG | 1.09 |
| GCACAACAGG | 1.23 |
| GCACAGCGAC | 1.13 |
| GCACAGCTTT | 1.02 |
| GCACATAGAA | 1.07 |
| GCACATGCGC | 1.06 |
| GCACATTGCG | 0.983 |
| GCACCACCTT | 1.21 |
| GCACCATGTC | 1.03 |
| GCACCCGGGA | 1.02 |
| GCACCGCATA | 1.95 |
| GCACCTGAAA | 1.01 |
| GCACGAGG | 0.999 |
| GCACGATGGA | 1.01 |
| GCACGATGTA | 1.03 |
| GCACGCAGCT | 1.1 |
| GCACGGAGCT | 1.27 |
| GCACGGTTAT | 0.993 |
| GCACTACTAG | 1.08 |
| GCACTAGGAG | 1.07 |
| GCACTAGTCA | 1.05 |
| GCACTATACT | 1.62 |
| GCACTCGAAA | 1.08 |
| GCACTCTACG | 1.31 |

| Sequence | switch fluorescence ratio |
| --- | --- |
| GCACTGGGAC | 1.14 |
| GCAGAAAACC | 1.03 |
| GCAGAACGGC | 1.08 |
| GCAGACACCA | 1.05 |
| GCAGACAGCG | 1.06 |
| GCAGACAGTA | 1.01 |
| GCAGATATCG | 0.978 |
| GCAGATCAAT | 1.05 |
| GCAGCACGTG | 1 |
| GCAGCATAAC | 4.78 |
| GCAGCATGTT | 1.12 |
| GCAGCCGTTT | 1.03 |
| GCAGCCTTCG | 1.06 |
| GCAGCGTCTA | 0.96 |
| GCAGCTAAAC | 3.86 |
| GCAGCTCAGG | 1.33 |
| GCAGGACCGG | 1.08 |
| GCAGGAGGTG | 1.07 |
| GCAGGATT | 0.983 |
| GCAGGCCGTT | 0.984 |
| GCAGGCCTGT | 0.977 |
| GCAGGGCAGC | 1 |
| GCAGGGCGTT | 0.995 |
| GCAGGGGACC | 1.46 |
| GCAGGTCCAT | 0.998 |
| GCAGTAAGGC | 1.32 |

| Sequence | switch fluorescence ratio |
| --- | --- |
| GCAGTACTAC | 3.24 |
| GCAGTTAATA | 1.06 |
| GCAGTTCAAT | 1.04 |
| GCAGTTCAGC | 0.982 |
| GCAGTTTCCA | 0.991 |
| GCAGTTTTG | 0.983 |
| GCATAACAA | 1 |
| GCATAACTAA | 0.997 |
| GCATAAGATT | 1.01 |
| GCATAATAGG | 0.973 |
| GCATAATTTG | 1.02 |
| GCATACGGGT | 1.06 |
| GCATATAGGT | 1.06 |
| GCATATCTAA | 1.05 |
| GCATATGAAT | 1.03 |
| GCATATGCCG | 0.991 |
| GCATCAGGTA | 1 |
| GCATCGATAT | 0.986 |
| GCATCTAAGG | 1.03 |
| GCATCTAGT | 0.993 |
| GCATCTTTGG | 0.977 |
| GCATGAGCGA | 1.06 |
| GCATGATTCA | 0.959 |
| GCATGGATTG | 0.946 |
| GCATGGGAGT | 0.983 |
| GCATGGTCGA | 1.01 |

| Sequence | switch fluorescence ratio |
| --- | --- |
| GCATGTAGCT | 1.03 |
| GCATGTCGCG | 1.01 |
| GCATGTCTGT | 1.02 |
| GCATGTGAGC | 1.03 |
| GCATGTTCAC | 0.951 |
| GCATTATCGC | 1.01 |
| GCATTATGGC | 1.05 |
| GCATTCACGC | 1.07 |
| GCATTGTCGT | 1.01 |
| GCATTTTCGT | 1.02 |
| GCCAAAGCTG | 1.04 |
| GCCAACTCAG | 0.993 |
| GCCAAGCCGG | 0.999 |
| GCCAATCACA | 1.05 |
| GCCAATGGCT | 0.967 |
| GCCACTCTTC | 0.998 |
| GCCACTGGAG | 1.02 |
| GCCAGATCCG | 1.02 |
| GCCAGATCT | 0.94 |
| GCCAGCGAGA | 1.07 |
| GCCAGGATCG | 1 |
| GCCAGGGTTC | 1.02 |
| GCCAGGTACT | 1.45 |
| GCCAGTCA | 0.986 |
| GCCATAGTGC | 1.06 |
| GCCATATTTG | 1.01 |

| Sequence | switch fluorescence ratio |
| --- | --- |
| GCCATCACGT | 0.996 |
| GCCATCTGTC | 0.965 |
| GCCATTGCAG | 0.988 |
| GCCATTGTCC | 1.02 |
| GCCATTTCAG | 0.959 |
| GCCCAAAAAG | 1.01 |
| GCCCAATATG | 1.16 |
| GCCCACAGAT | 1.02 |
| GCCCACCGGG | 1.02 |
| GCCCACCTTA | 1.03 |
| GCCCACGCGG | 1.04 |
| GCCCAGAAA | 1.08 |
| GCCCAGACCT | 1.1 |
| GCCCAGGATA | 1 |
| GCCCATGAGC | 0.982 |
| GCCCCAAAAT | 0.983 |
| GCCCCCCGTT | 1.06 |
| GCCCCCCTGG | 1.18 |
| GCCCCCGTAA | 4.28 |
